# Laboratory results published in the supplement of paper PMC8728848.
# Some of the results follow.
# Legend:
# Assay in all cases: glycan array binding signal (z-score within array); higher = stronger binding
# Conditions in all cases: glycan notation: IUPAC condensed, linker removed; mutation: E41G
# [1] = target: Gal(b1-3)GlcNAc(b1-6)GalNAc
# Method in brief: (§1)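 From the Consortium for Functional Glycomics database, 3228 arrays were curated, keeping only those whose protein sequence was available. Binding is given as a within-array Z-score averaged across arrays sharing a protein sequence and across linkers. Negative Z-scores can be read as non-binding.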
# [2] = target: Gal(b1-3)GlcNAc(b1-6)[Gal(b1-3)]GalNAc
# Method in brief: as §1
# [3] = target: Gal(b1-3)GlcNAc6S
# Method in brief: as §1
# [4] = target: Gal(b1-3)[Fuc(a1-4)]GlcNAc
# Method in brief: as §1
# [5] = target: Gal(b1-3)[Fuc(a1-4)]GlcNAc(b1-2)Man
# Method in brief: as §1
# [6] = target: Gal(b1-3)[Fuc(a1-4)]GlcNAc(b1-2)Man(a1-3)[Gal(b1-3)[Fuc(a1-4)]GlcNAc(b1-2)Man(a1-6)]Man(b1-4)GlcNAc(b1-4)[Fuc(a1-6)]GlcNAc
# Method in brief: as §1
# [7] = target: Gal(b1-3)[Fuc(a1-4)]GlcNAc(b1-3)Gal(b1-3)[Fuc(a1-4)]GlcNAc
# Method in brief: as §1
# [8] = target: Gal(b1-3)[Fuc(a1-4)]GlcNAc(b1-3)Gal(b1-4)[Fuc(a1-3)]GlcNAc
# Method in brief: as §1
# [9] = target: Gal(b1-3)[Fuc(a1-4)]GlcNAc(b1-6)GalNAc
# Method in brief: as §1
# [10] = target: Gal(b1-3)[GlcNAc(b1-6)]GalNAc
# Method in brief: as §1
# [11] = target: Gal(b1-3)[Neu5Ac(a2-6)]GalNAc
# Method in brief: as §1
# [12] = target: Gal(b1-3)[Neu5Ac(a2-6)]GlcNAc(b1-4)Gal(b1-4)Glc
# Method in brief: as §1
# [13] = target: Gal(b1-3)[Neu5Ac(b2-6)]GalNAc
# Method in brief: as §1
# [14] = target: Gal(b1-4)Gal
# Method in brief: as §1
# [15] = target: Gal(b1-4)GalNAc(a1-3)[Fuc(a1-2)]Gal(b1-4)GlcNAc
# Method in brief: as §1
# [16] = target: Gal(b1-4)GalNAc(b1-3)[Fuc(a1-2)]Gal(b1-4)GlcNAc
# Method in brief: as §1
# [17] = target: Gal(b1-4)Glc
# Method in brief: as §1
# [18] = target: Gal(b1-4)Glc6S
# Method in brief: as §1
# [19] = target: Gal(b1-4)GlcNAc
# Method in brief: as §1
# [20] = target: Gal(b1-4)GlcNAc(a1-6)Gal(b1-4)GlcNAc
# Method in brief: as §1
# [21] = target: Gal(b1-4)GlcNAc(b1-2)Man
# Method in brief: as §1
# [22] = target: Gal(b1-4)GlcNAc(b1-2)Man(a1-3)Man(b1-4)GlcNAc(b1-4)GlcNAc
# Method in brief: as §1
# [23] = target: Gal(b1-4)GlcNAc(b1-2)Man(a1-3)[Gal(b1-4)GlcNAc(b1-2)Man(a1-6)]Man(b1-4)GlcNAc(b1-4)GlcNAc
# Method in brief: as §1
# [24] = target: Gal(b1-4)GlcNAc(b1-2)Man(a1-3)[Gal(b1-4)GlcNAc(b1-2)Man(a1-6)]Man(b1-4)GlcNAc(b1-4)[Fuc(a1-6)]GlcNAc
# Method in brief: as §1
# [25] = target: Gal(b1-4)GlcNAc(b1-2)Man(a1-3)[Gal(b1-4)GlcNAc(b1-2)Man(a1-6)][Gal(b1-4)GlcNAc(b1-4)]Man(b1-4)GlcNAc(b1-4)[Fuc(a1-6)]GlcNAc
# Method in brief: as §1
# [26] = target: Gal(b1-4)GlcNAc(b1-2)Man(a1-3)[Gal(b1-4)GlcNAc(b1-2)Man(a1-6)][GlcNAc(b1-4)]Man(b1-4)GlcNAc(b1-4)[Fuc(a1-6)]GlcNAc
# Method in brief: as §1
# [27] = target: Gal(b1-4)GlcNAc(b1-2)Man(a1-3)[GlcNAc(b1-2)Man(a1-6)]Man(b1-4)GlcNAc(b1-4)GlcNAc
# Method in brief: as §1
# [28] = target: Gal(b1-4)GlcNAc(b1-2)Man(a1-3)[GlcNAc(b1-4)][Gal(b1-4)GlcNAc(b1-2)Man(a1-6)]Man(b1-4)GlcNAc(b1-4)GlcNAc
# Method in brief: as §1
# [29] = target: Gal(b1-4)GlcNAc(b1-2)Man(a1-3)[Man(a1-6)]Man(b1-4)GlcNAc(b1-4)GlcNAc
# Method in brief: as §1
# [30] = target: Gal(b1-4)GlcNAc(b1-2)Man(a1-6)Man(b1-4)GlcNAc(b1-4)GlcNAc
# Method in brief: as §1
# [31] = target: Gal(b1-4)GlcNAc(b1-2)Man(a1-6)[GlcNAc(b1-2)Man(a1-3)]Man(b1-4)GlcNAc(b1-4)GlcNAc
# Method in brief: as §1
# [32] = target: Gal(b1-4)GlcNAc(b1-2)Man(a1-6)[Man(a1-3)]Man(b1-4)GlcNAc(b1-4)GlcNAc
# Method in brief: as §1
# [33] = target: Gal(b1-4)GlcNAc(b1-2)[Gal(b1-4)GlcNAc(b1-4)]Man(a1-3)[Gal(b1-4)GlcNAc(b1-2)Man(a1-6)]Man(b1-4)GlcNAc(b1-4)GlcNAc
# Method in brief: as §1
# [34] = target: Gal(b1-4)GlcNAc(b1-2)[Gal(b1-4)GlcNAc(b1-4)]Man(a1-3)[Gal(b1-4)GlcNAc(b1-2)[Gal(b1-4)GlcNAc(b1-6)]Man(a1-6)]Man(b1-4)GlcNAc(b1-4)GlcNAc
# Method in brief: as §1
# [35] = target: Gal(b1-4)GlcNAc(b1-2)[Gal(b1-4)GlcNAc(b1-4)]Man(a1-3)[GlcNAc(b1-4)][Gal(b1-4)GlcNAc(b1-2)Man(a1-6)]Man(b1-4)GlcNAc(b1-4)GlcNAc
# Method in brief: as §1
# [36] = target: Gal(b1-4)GlcNAc(b1-2)[Gal(b1-4)GlcNAc(b1-4)]Man(a1-3)[GlcNAc(b1-4)][Gal(b1-4)GlcNAc(b1-2)[Gal(b1-4)GlcNAc(b1-6)]Man(a1-6)]Man(b1-4)GlcNAc(b1-4)GlcNAc
# Method in brief: as §1
# [37] = target: Gal(b1-4)GlcNAc(b1-2)[Gal(b1-4)GlcNAc(b1-6)]Man(a1-6)[Gal(b1-4)GlcNAc(b1-2)Man(a1-3)]Man(b1-4)GlcNAc(b1-4)GlcNAc
# Method in brief: as §1
# [38] = target: Gal(b1-4)GlcNAc(b1-2)[Gal(b1-4)GlcNAc(b1-6)]Man(a1-6)[Gal(b1-4)GlcNAc(b1-2)Man(a1-3)]Man(b1-4)GlcNAc(b1-4)[Fuc(a1-6)]GlcNAc
# Method in brief: as §1
# [39] = target: Gal(b1-4)GlcNAc(b1-2)[Gal(b1-4)GlcNAc(b1-6)]Man(a1-6)[GlcNAc(b1-4)][Gal(b1-4)GlcNAc(b1-2)Man(a1-3)]Man(b1-4)GlcNAc(b1-4)GlcNAc
# Method in brief: as §1
# [40] = target: Gal(b1-4)GlcNAc(b1-2)[Gal(b1-4)GlcNAc(b1-6)]Man(a1-6)[GlcNAc(b1-4)][Gal(b1-4)GlcNAc(b1-2)[Gal(b1-4)GlcNAc(b1-4)]Man(a1-3)]Man(b1-4)GlcNAc(b1-4)[Fuc(a1-6)]GlcNAc
# Method in brief: as §1
# [41] = target: Gal(b1-4)GlcNAc(b1-3)Gal(b1-3)GalNAc
# Method in brief: as §1
# [42] = target: Gal(b1-4)GlcNAc(b1-3)Gal(b1-3)GlcNAc
# Method in brief: as §1
# [43] = target: Gal(b1-4)GlcNAc(b1-3)Gal(b1-4)Glc
# Method in brief: as §1
# [44] = target: Gal(b1-4)GlcNAc(b1-3)Gal(b1-4)GlcNAc
# Method in brief: as §1
# [45] = target: Gal(b1-4)GlcNAc(b1-3)Gal(b1-4)GlcNAc(b1-2)Man(a1-3)[Gal(b1-4)GlcNAc(b1-3)Gal(b1-4)GlcNAc(b1-2)Man(a1-6)]Man(b1-4)GlcNAc(b1-4)GlcNAc
# Method in brief: as §1
binder,measurement,setting,value
CVN-E41G (protein) MHHHHHHENLYFQSGNFSQACYNSAIQGSVLTSTCIRTNGGYNTSSIDLNSVIGNVDGSLKWQGSNFIETCRNTQLAGSSELAAECKTRAQQFVSTKINLDDHIAAIDGTLKYE,glycan array binding signal (z-score),[1],-0.14
same,glycan array binding signal (z-score),[2],-0.103
same,glycan array binding signal (z-score),[3],-0.17
same,glycan array binding signal (z-score),[4],-0.151
same,glycan array binding signal (z-score),[5],-0.063
same,glycan array binding signal (z-score),[6],0.524
same,glycan array binding signal (z-score),[7],-0.055
same,glycan array binding signal (z-score),[8],-0.151
same,glycan array binding signal (z-score),[9],-0.062
same,glycan array binding signal (z-score),[10],-0.169
same,glycan array binding signal (z-score),[11],-0.077
same,glycan array binding signal (z-score),[12],-0.179
same,glycan array binding signal (z-score),[13],-0.158
same,glycan array binding signal (z-score),[14],-0.137
same,glycan array binding signal (z-score),[15],-0.183
same,glycan array binding signal (z-score),[16],-0.182
same,glycan array binding signal (z-score),[17],-0.159
same,glycan array binding signal (z-score),[18],-0.155
same,glycan array binding signal (z-score),[19],-0.167
same,glycan array binding signal (z-score),[20],-0.181
same,glycan array binding signal (z-score),[21],-0.16
same,glycan array binding signal (z-score),[22],-0.157
same,glycan array binding signal (z-score),[23],-0.166
same,glycan array binding signal (z-score),[24],-0.15
same,glycan array binding signal (z-score),[25],-0.169
same,glycan array binding signal (z-score),[26],-0.165
same,glycan array binding signal (z-score),[27],-0.156
same,glycan array binding signal (z-score),[28],-0.16
same,glycan array binding signal (z-score),[29],-0.04
same,glycan array binding signal (z-score),[30],-0.177
same,glycan array binding signal (z-score),[31],-0.149
same,glycan array binding signal (z-score),[32],-0.149
same,glycan array binding signal (z-score),[33],-0.165
same,glycan array binding signal (z-score),[34],0.24
same,glycan array binding signal (z-score),[35],-0.154
same,glycan array binding signal (z-score),[36],-0.156
same,glycan array binding signal (z-score),[37],-0.152
same,glycan array binding signal (z-score),[38],-0.163
same,glycan array binding signal (z-score),[39],-0.142
same,glycan array binding signal (z-score),[40],-0.143
same,glycan array binding signal (z-score),[41],-0.179
same,glycan array binding signal (z-score),[42],-0.157
same,glycan array binding signal (z-score),[43],-0.143
same,glycan array binding signal (z-score),[44],-0.143
same,glycan array binding signal (z-score),[45],-0.028
